# Several values for one entry are separate records, joined by “and”; a condition that tells them apart may be missing. Identical values can stand only once.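 A five-concentration, 48-hour dose response in 96-well plates underlies each endpoint, interpolated linearly between surrounding concentrations. Abbreviation: GI50, concentration required for 50% inhibition of growth. Definition used: TGI = concentration required for complete inhibition of growth.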
# Test system: NCI-H322M lung
# Experiment: growth of human tumour cells (NCI), 48 h
SMILES,GI50,TGI
O=C1OC(c2ccccc2)(c2cc(Br)c(O)c(Br)c2)c2ccccc21 (configuration not stated),23.2 µM,69.2 µM
CSc1ncnc2c1ncn2C1OC(CO)C(O)OC1O (configuration not stated),,15.1 µM
COc1ccc(NC(=S)N/N=C(\C)c2nc3ncccc3[nH]2)cc1,,> 100 µM
O=C(Oc1ccc(Cl)cc1[N+](=O)[O-])c1ccccc1,,> 100 µM
Cn1c2c3ccc(Cl)cc3nc-2c(Cl)c2ccccc21,,> 100 µM
Nc1ncnc2c1ncn2[C@H]1CC[C@@H](NO)C1,,> 100 µM
O=c1c2c3c(sc2nc(N/N=C/c2ccc(Br)cc2)n1Cc1ccccc1)CCCC3,7.22 µM,> 100 µM
N#CC1=C(N)NC(=S)NC12Nc1ccccc1N2,27.4 µM,96.9 µM
Cc1cn2c(/C=N/N=C(N)N)c(-c3cccnc3)nc2s1,17.5 µM,32 µM
CN(C)CCOC(c1ccccc1)c1ccccc1,35.5 µM,50.6 µM and > 100 µM
O=C(Nc1nc2ccc(F)cc2s1)c1cccnc1Nc1ccc(Cl)cc1,3.87 µM,> 100 µM
CNC(=O)CN(C)C(=O)CCC(=O)N(C)C,,> 100 µM
C=CN(C)S(C)(=O)=O,> 100 µM,> 100 µM
O=C1OC2CC=CC1C2 (configuration not stated),,> 100 µM
CCOC(=O)/C(=C(/C)NCC(C)C)c1cc(O)c(O)c2c(C)cc(=O)[nH]c12,4.31 µM,> 100 µM
CC(=O)NNC(=O)C1CCCCN1 (configuration not stated),,> 100 µM
COc1ccc2oc(C(=O)O)c3c2c1CCC3,,> 100 µM
CC(=N\N=C\c1ccccn1)/C(C)=N/N=C(C)/C(C)=N/N=C/c1ccccn1,,> 100 µM
CC(=O)OCCOc1cc2c([nH]c3ccccc32)c(C)c2cccc1-2,,28.2 µM

SMILES,GI50,TGI
O=c1[nH]c(-n2[nH]c3c(c2=O)CCCC3)nc(O)c1-c1ccccc1,,> 100 µM
C=CCNS(=O)(=O)c1ncnc2nc[nH]c12,,> 100 µM
O=C1c2ccccc2-c2c1c1c(O)cccc1n2-c1ccccc1,> 100 µM,> 100 µM
Cc1nc(C(N)=S)sc1C(=O)CC(=O)C(=O)Nc1nc2ccccc2[nH]1,,> 100 µM
CN1Cc2cc3c(cc2-c2ccccc21)OCO3,,> 100 µM
COC(=O)CSC(=S)Nc1nnc(NC(=S)SCOC(C)=O)n1C(=S)SCC(=O)OC,,> 100 µM
O=S(=O)(Nc1cc(Cl)ccc1Cl)c1ccc(-c2cnc(C3CC3)o2)cc1,6.1 µM,> 100 µM
O=C(NCc1ccncc1)C12CC3CC(C1)CC(c1ccc(Cl)cc1)(C3)C2,13.9 µM,26.9 µM
Br/C(=N\Nc1nn[nH]n1)c1ccncc1,,> 100 µM
COCn1c(C)c(C)c2c(=O)oc(N(C)C)nc21,,> 100 µM
CN(C)CCCNC(=O)c1cncnc1Nc1ccc(OCc2cccc(F)c2)c(Cl)c1,1.69 µM,3.06 µM
COc1ccc(OC)c(-c2cc(=O)c3c(OC)c(OC)c(OC)c(OC)c3o2)c1,,> 100 µM
CC[C@@H]1C[C@H]2CC3c4[nH]c5ccc(O)cc5c4CCN(C2)C31,,> 100 µM
CN1CCN(CCCCN2c3ccccc3Sc3cc(N=[N+]=[N-])ccc32)CC1,,5.26 µM
Cc1ccc(-c2nc(N3CCCNCC3)c3oc(-c4ccccc4)nc3n2)cc1,1.71 µM,3.08 µM
COc1ccc2nc3ccccc3c(NCCCN(C)CCCl)c2c1,,2.52 µM
CCOc1ccccc1NC(=O)CCc1n[nH]c(=S)o1,,> 100 µM
COC(=O)c1c2c(cc3c1CC1(Cc4cc5c(cc4C1=O)CCC5)C3)CCC2 (configuration not stated),,> 100 µM
C=C1C(=O)O[C@@H]2C1C[C@@H](O)C(=C)CC/C=C(\C)CCC[C@H](C)[C@H]2OC(C)=O (some centres not stated),14.6 µM,29.1 µM

SMILES,GI50,TGI
O=C1C2CN(Cc3ccccc3)CC1CN(CC1CC1)C2,,> 100 µM
O=C(CCC(C(=O)c1ccccc1)c1ccccc1)c1ccccc1 (configuration not stated),53.6 µM,> 100 µM
CN1CC[C@]2(c3cccc(O)c3)CC(=O)/C(=C/c3ccc(Cl)c(Cl)c3)[C@@H]1C2,,3.22 µM
NS(=O)(=O)c1ccc(Nc2c3ccccc3nc3c(C(=O)NCCO)cccc23)cc1,,0.446 µM
COc1ccc(-c2nc(N3CCN(C(=O)C4CCCCC4)CC3)c3c4c(sc3n2)CCCC4)cc1,> 100 µM,> 100 µM
[O-][n+]1onc2c1/C(=N/O)CCC2,,> 100 µM
CCN(CC)CCNc1cc(-c2cccc(OC(F)(F)F)c2)nc2ccc(N3CCCC3)cc12,1.63 µM and 1.99 µM and 2.6 µM,3.82 µM and 4.49 µM and 7.95 µM
Cc1nc2ccccc2c(=O)n1NC(=S)Nc1ccc(Cl)cc1[N+](=O)[O-],,> 100 µM
C=CCSSCC=C,,> 100 µM
CNC(=O)c1cccc2c(Nc3ccc(NS(C)(=O)=O)cc3OC)c3cccc(C)c3nc12,,13.7 µM
N#CCC(=O)N/N=C(\C(=O)Nc1ccc(Cl)c(Cl)c1)C1CN(c2ccccc2)N=C1N (configuration not stated),,> 100 µM
CC(=O)C1(N=Nc2ccc(S(N)(=O)=O)cc2)CCOC1=O (configuration not stated),,> 100 µM
COC(=O)Nc1nc2ccc(NC(=O)c3cccs3)cc2[nH]1,,> 100 µM
O=C(NCc1ccco1)c1ccc(NC2=C(Cl)C(=O)N(Cc3ccccc3)C2=O)cc1,20.4 µM,46.9 µM
O=C(/C(=C/c1ccc([N+](=O)[O-])cc1)SCc1ccc(F)cc1)c1ccc(Cl)cc1,> 100 µM,> 100 µM
O=c1c2cc([N+](=O)[O-])ccc2nc2n1CCCCC2,,> 100 µM
CN1CC(CNC(=O)OCc2ccccc2)CC2c3cccc4c3c(cn4C)CC21 (configuration not stated),3.92 µM,15.2 µM
CCOC(=O)[C@@H](C)C[C@H](Cc1ccccc1)NC(=O)c1csc([C@@H](C[C@H](C(C)C)N(C)C(=O)[C@H](CC)NC(=O)[C@H]2CCCCN2C)OC(C)=O)n1,0.00429 µM,> 16.7 µM

# From PubChem BioAssay (NCI)
